Assay results: the supplement of paper PMC4604168 (melanoma cell lines)
This is one part of the list. Many values rest on one well or one pass, so single values are uncertain.

What was measured:
Assay in all cases: cell count relative to DMSO control; melanoma cells; higher = more viable cells
Conditions in all cases: library dose: low library concentration; 72 h; first compound 0.4 µM
WM115 = system: WM115
WM1716 = system: WM1716
WM1745 = system: WM1745
WM3526 = system: WM3526
WM3619 = system: WM3619
WM451Lu = system: WM451Lu
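Also: cell number obtained by counting DAPI-stained nuclei in high-throughput microscope images with image analysis software, screen run in 1,536-well plates.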

Structure (SMILES) | cell count (WM115) | cell count (WM1716) | cell count (WM1745) | cell count (WM3526) | cell count (WM3619) | cell count (WM451Lu)
Cn1sc(=O)n(Cc2ccccc2)c1=O + Cc1nc(Nc2ncc(C(=O)Nc3c(C)cccc3Cl)s2)cc(N2CCN(CCO)CC2)n1 [dasatanib] (partner dose 0.004 µM) | 85.5% | 93.2% | 81.9% | 94% | 97.4% | 89.6%
C[C@@H](N)c1ccc(C(=O)Nc2ccnc3[nH]ccc23)cc1 + CCN(CC)CCCCNc1ncc2cc(-c3cc(OC)cc(OC)c3)c(NC(=O)NC(C)(C)C)nc2n1 [PD173074] (partner dose 0.1 µM) | 119% | 77.1% | 86.7% | 117% | 103% | 87%
Cn1sc(=O)n(Cc2ccccc2)c1=O + C[C@@H]1CCN(C(=O)CC#N)C[C@@H]1N(C)c1ncnc2[nH]ccc12 [CP690550] (partner dose 1 µM) | 99% | 108% | 97.4% | 97.4% | 122% | 122%
C[C@@H](N)c1ccc(C(=O)Nc2ccnc3[nH]ccc23)cc1 + Nc1ccn([C@@H]2O[C@H](CO)[C@@H](O)C2(F)F)c(=O)n1 [gemcitabine] (partner dose 0.0004 µM) | 103% | 72% | 71.4% | 115% | 71.2% | 118%
Cn1sc(=O)n(Cc2ccccc2)c1=O + Nc1ccn([C@@H]2O[C@H](CO)[C@@H](O)C2(F)F)c(=O)n1 [gemcitabine] (partner dose 0.0004 µM) | 97.4% | 101% | 77.2% | 128% | 73.5% | 91.6%
CCCCCCCCCCCCCCCCCCOP(=O)([O-])OC1CC[N+](C)(C)CC1 [Perifosine] + CC1(C)NC(=O)N(c2ccc([N+](=O)[O-])c(C(F)(F)F)c2)C1=O [nilutamide] (partner dose 1 µM) | 77% | 65.7% | 137% | 70.9% | 85% | 74.4%
C[C@@H](N)c1ccc(C(=O)Nc2ccnc3[nH]ccc23)cc1 + COc1cc2c(Oc3ccc4[nH]c(C)cc4c3F)ncnc2cc1OCCCN1CCCC1 [cediranib] (partner dose 0.4 µM) | 96.7% | 62.9% | 80.8% | 110% | 97% | 89.1%
Cn1sc(=O)n(Cc2ccccc2)c1=O + CNC(=O)c1cc(Oc2ccc(NC(=O)Nc3ccc(Cl)c(C(F)(F)F)c3)cc2)ccn1 [sorafenib] (partner dose 0.4 µM) | 109% | 89.9% | 116% | 101% | 77.2% | 97.1%
CCCCCCCCCCCCCCCCCCOP(=O)([O-])OC1CC[N+](C)(C)CC1 [Perifosine] + COc1ccc(-c2ccc3c(N4CCOCC4)nc(N4C[C@@H](C)O[C@@H](C)C4)nc3n2)cc1CO [KU0063794] (partner dose 0.02 µM) | 92.7% | 95% | 96.2% | 89.1% | 85.9% | 95.1%
CCCCCCCCCCCCCCCCCCOP(=O)([O-])OC1CC[N+](C)(C)CC1 [Perifosine] + NC(=O)Nc1cc(-c2cccc(F)c2)sc1C(=O)N[C@H]1CCCNC1 [AZD7762] (partner dose 0.02 µM) | 94.8% | 102% | 112% | 90% | 58.1% | 84.8%
CCCCCCCCCCCCCCCCCCOP(=O)([O-])OC1CC[N+](C)(C)CC1 [Perifosine] + c1cc(-c2cnn3cc(-c4ccc(OCCN5CCCCC5)cc4)cnc23)ccn1 [Dorsomorphin] (partner dose 0.4 µM) | 98.3% | 89.4% | 78.3% | 93.1% | 116% | 98.3%
CCCCCCCCCCCCCCCCCCOP(=O)([O-])OC1CC[N+](C)(C)CC1 [Perifosine] + Cn1nnc2c(C(N)=O)ncn2c1=O [temozolomide] (partner dose 2 µM) | 94.3% | 88.8% | 114% | 99.6% | 94.1% | 93.7%
C[C@@H](N)c1ccc(C(=O)Nc2ccnc3[nH]ccc23)cc1 + Cc1cc([N+](=O)[O-])ccc1NS(=O)(=O)c1cc(Cl)ccc1Cl [FH535] (partner dose 1 µM) | 93.5% | 70.1% | 79.1% | 115% | 112% | 98.3%
C[C@@H](N)c1ccc(C(=O)Nc2ccnc3[nH]ccc23)cc1 + CO[C@@H]1[C@H](N(C)C(=O)c2ccccc2)C[C@H]2O[C@]1(C)n1c3ccccc3c3c4c(c5c6ccccc6n2c5c31)C(=O)NC4 [Midostaurin] (partner dose 0.08 µM) | 114% | 79.9% | 80.4% | 100% | 74.7% | 65.4%
CCCCCCCCCCCCCCCCCCOP(=O)([O-])OC1CC[N+](C)(C)CC1 [Perifosine] + CC(=O)c1c(C)c2cnc(Nc3ccc(N4CCNCC4)cn3)nc2n(C2CCCC2)c1=O [palbociclib] (partner dose 0.04 µM) | 83.3% | 70.4% | 78% | 44.7% | 78.3% | 93.1%
CCCCCCCCCCCCCCCCCCOP(=O)([O-])OC1CC[N+](C)(C)CC1 [Perifosine] + Cn1cc(/C=C2\C(=O)Nc3cccnc32)c2ccccc21 [GW441756] (partner dose 0.4 µM) | 94.8% | 101% | 120% | 108% | 105% | 62.7%
Cn1sc(=O)n(Cc2ccccc2)c1=O + O=C(O)c1ccc2c(c1)nc(Nc1cccc(Cl)c1)c1ccncc12 [CX4945] (partner dose 0.4 µM) | 99% | 82.5% | 90.5% | 107% | 71.7% | 89.6%
CCCCCCCCCCCCCCCCCCOP(=O)([O-])OC1CC[N+](C)(C)CC1 [Perifosine] + C[C@@H](N)c1ccc(C(=O)Nc2ccnc3[nH]ccc23)cc1 [RKI983] (partner dose 0.4 µM) | 123% | 79.3% | 92.1% | 93.1% | 85% | 94.9%
CCCCCCCCCCCCCCCCCCOP(=O)([O-])OC1CC[N+](C)(C)CC1 [Perifosine] + CO[C@H]1C[C@@H]2CC[C@@H](C)[C@@](O)(O2)C(=O)C(=O)N2CCCC[C@H]2C(=O)O[C@H]([C@H](C)C[C@@H]2CC[C@@H](OCCO)[C@H](OC)C2)CC(=O)[C@H](C)/C=C(\C)[C@@H](O)[C@@H](OC)C(=O)[C@H](C)C[C@H](C)/C=C/C=C/C=C/1C [everolimus] (partner dose 0.02 µM) | 78% | 79.2% | 85.4% | 72.2% | 79.8% | 96%
Cn1sc(=O)n(Cc2ccccc2)c1=O + Cn1cncc1[C@@](N)(c1ccc(Cl)cc1)c1ccc2c(c1)c(-c1cccc(Cl)c1)cc(=O)n2C [tipifarnib] (partner dose 0.01 µM) | 94.8% | 70.6% | 88.7% | 74.8% | 73.5% | 107%
Cn1sc(=O)n(Cc2ccccc2)c1=O + Cc1cc([N+](=O)[O-])ccc1NS(=O)(=O)c1cc(Cl)ccc1Cl [FH535] (partner dose 1 µM) | 85.8% | 84.9% | 104% | 99.1% | 83.4% | 93.4%
CCCCCCCCCCCCCCCCCCOP(=O)([O-])OC1CC[N+](C)(C)CC1 [Perifosine] + O=C(O)c1ccc2c(c1)nc(Nc1cccc(Cl)c1)c1ccncc12 [CX4945] (partner dose 0.4 µM) | 106% | 97.9% | 107% | 90.5% | 98.3% | 99.7%
Cn1sc(=O)n(Cc2ccccc2)c1=O + C[C@@H](Oc1cc(-c2cnn(C3CCNCC3)c2)cnc1N)c1c(Cl)ccc(F)c1Cl [Crizotinib] (partner dose 0.2 µM) | 94.3% | 96.1% | 94.8% | 87.5% | 97.9% | 114%
CCCCCCCCCCCCCCCCCCOP(=O)([O-])OC1CC[N+](C)(C)CC1 [Perifosine] + Oc1nc(-c2ccc(C(F)(F)F)cc2)nc2c1CSCC2 [XAV939] (partner dose 2 µM) | 85.9% | 69.1% | 83.6% | 85.4% | 110% | 91.3%
C[C@@H](N)c1ccc(C(=O)Nc2ccnc3[nH]ccc23)cc1 + O=S(=O)(c1ccccc1)N(CC(F)(F)F)c1ccc(C(O)(C(F)(F)F)C(F)(F)F)cc1 [T0901317] (partner dose 1.4 µM) | 108% | 66.4% | 69.7% | 94.3% | 99.1% | 74.7%
C[C@@H](N)c1ccc(C(=O)Nc2ccnc3[nH]ccc23)cc1 + Cn1cnc2c(F)c(Nc3ccc(Br)cc3Cl)c(C(=O)NOCCO)cc21 [selumetinib] (partner dose 0.015 µM) | 114% | 59.6% | 83.4% | 116% | 75% | 112%
C[C@@H](N)c1ccc(C(=O)Nc2ccnc3[nH]ccc23)cc1 + O=C(O)C(=O)Nc1sc2c(c1C(=O)O)CCNC2 [TCS401] (partner dose 1.66667 µM) | 108% | 75.7% | 77.9% | 95.4% | 99.5% | 111%
CCCCCCCCCCCCCCCCCCOP(=O)([O-])OC1CC[N+](C)(C)CC1 [Perifosine] + CC(=O)O[C@@]12CO[C@@H]1C[C@H](O)[C@@]1(C)C(=O)[C@H](O)C3=C(C)[C@@H](OC(=O)[C@H](O)[C@@H](NC(=O)OC(C)(C)C)c4ccccc4)C[C@@](O)([C@@H](OC(=O)c4ccccc4)[C@H]21)C3(C)C [Docetaxel] (partner dose 0.0001 µM) | 69.4% | 38.8% | 54.2% | 47.1% | 68.4% | 80.3%
CCCCCCCCCCCCCCCCCCOP(=O)([O-])OC1CC[N+](C)(C)CC1 [Perifosine] + C[C@]1(O)C[C@@H](c2nc(-c3ccc4ccc(-c5ccccc5)nc4c3)c3c(N)nccn32)C1 [OSI906] (partner dose 0.4 µM) | 88.9% | 77% | 75.6% | 78.3% | 106% | 89.9%
